Source: the supplement of paper PMC4604168 (melanoma cell lines)
The list shows a part of the results. Most values come without repeats; read them as rough.

Assays:
Test in all cases: cell count relative to DMSO control; melanoma cells; higher = more viable cells
Details in all cases: library dose: low library concentration; 72 h
COLO792 = test system: COLO792
COLO800 = test system: COLO800
COLO829 = test system: COLO829
G361 = test system: G361
IPC-298 = test system: IPC-298
IST-MEL1 = test system: IST-MEL1
LB2518-MEL = test system: LB2518-MEL
LOXIMVI = test system: LOXIMVI
MEL-HO = test system: MEL-HO
MZ2-MEL = test system: MZ2-MEL
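Note: cell number obtained by counting DAPI-stained nuclei in high-throughput microscope images with image analysis software, screen run in 1,536-well plates.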

Row | Compound | cell count (COLO792) [%] | cell count (COLO800) [%] | cell count (COLO829) [%] | cell count (G361) [%] | cell count (IPC-298) [%] | cell count (IST-MEL1) [%] | cell count (LB2518-MEL) [%] | cell count (LOXIMVI) [%] | cell count (MEL-HO) [%] | cell count (MZ2-MEL) [%]
1 | N#Cc1c(O)c2c(-c3ccc(-c4ccccc4O)cc3)csc2[nH]c1=O + Oc1nc(-c2ccc(C(F)(F)F)cc2)nc2c1CSCC2 [XAV939] (first compound 2 µM, partner dose 2 µM) | 85.5 | 91.5 | 109 | 98.7 | 101 | 108 | 98.9 | 223 | 83.8 | 90.6
2 | O=C1NC(=O)/C(=C/c2ccc(-c3ccc(F)cc3O)o2)S1 + COc1cc(N2CCC(N3CCN(C)CC3)CC2)ccc1Nc1ncc(Cl)c(Nc2ccccc2S(=O)(=O)C(C)C)n1 [NVP-TAE684] (first compound 1 µM, partner dose 0.08 µM) | 97.7 | 60 | 93.3 | 101 | 97.6 | 95.3 | 92.8 | 85.4 | 82.7 | 98.4
3 | N#Cc1c(O)c2c(-c3ccc(-c4ccccc4O)cc3)csc2[nH]c1=O + Oc1cc(-c2nc(-c3ccccc3)[nH]c2-c2ccncc2)ccc1Cl [L779450] (first compound 2 µM, partner dose 0.2 µM) | 109 | 81.5 | 97.2 | 101 | 80.6 | 96 | 97.7 | 116 | 83.7 | 81.9
4 | c1cc(-c2cnn3cc(-c4ccc(OCCN5CCCCC5)cc4)cnc23)ccn1 [Dorsomorphin] + O=c1cc(-c2cccc3c2Sc2ccccc2S3)oc(N2CCOCC2)c1 [KU55933] (first compound 0.4 µM, partner dose 1 µM) | 99 | 93.6 | 92.9 | 62.4 | 102 | 102 | 121 | 187 | 104 | 102
5 | COc1cc(N2CCC(N3CCN(C)CC3)CC2)ccc1Nc1ncc(Cl)c(Nc2ccccc2S(=O)(=O)C(C)C)n1 + Cn1cc(/C=C2\C(=O)Nc3cccnc32)c2ccccc21 [GW441756] (first compound 0.08 µM, partner dose 0.4 µM) | 89.3 | 116 | 117 | 89.5 | 94.8 | 99.5 | 119 | 91.1 | 83.5 | 94.3
6 | CCN(CC)CCCCNc1ncc2cc(-c3cc(OC)cc(OC)c3)c(NC(=O)NC(C)(C)C)nc2n1 + c1cc(-c2cnn3cc(-c4ccc(OCCN5CCCCC5)cc4)cnc23)ccn1 [Dorsomorphin] (first compound 0.1 µM, partner dose 0.4 µM) | 90.3 | 84.8 | 103 | 86.9 | 106 | 100 | 85.3 | 131 | 93 | 89.6
7 | Cc1cc([N+](=O)[O-])ccc1NS(=O)(=O)c1cc(Cl)ccc1Cl + Cn1cc(/C=C2\C(=O)Nc3cccnc32)c2ccccc21 [GW441756] (first compound 1 µM, partner dose 0.4 µM) | 79.4 | 124 | 105 | 95.5 | 80 | 83.7 | 89.7 | 96.7 | 76.6 | 89.9
8 | COc1ccc(-c2ccc3c(N4CCOCC4)nc(N4C[C@@H](C)O[C@@H](C)C4)nc3n2)cc1CO + COc1cc2ncnc(Nc3ccc(Oc4ccccc4)cc3)c2cc1OC [SrcI1] (first compound 0.02 µM, partner dose 2 µM) | 86.6 | 96.6 | 109 | 90.7 | 90.7 | 92.4 | 105 | 100 | 81.8 | 91.8
9 | N#Cc1c(O)c2c(-c3ccc(-c4ccccc4O)cc3)csc2[nH]c1=O + CC(C)CCN1c2nc(Nc3cc(F)c(O)c(F)c3)ncc2N(C)C(=O)C1C [BID1870] (first compound 2 µM, partner dose 0.2 µM) | 91.1 | 107 | 100 | 107 | 96.4 | 99.2 | 86.7 | 113 | 91.1 | 92.8
10 | COc1ccc2c(c1)CCC1C2CCC2(C)C(NCCCCCCN3C(=O)C=CC3=O)CCC12 (stereo not given) + O=c1cc(-c2cccc3c2Sc2ccccc2S3)oc(N2CCOCC2)c1 [KU55933] (first compound 0.4 µM, partner dose 1 µM) | 91.3 | 129 | 104 | 111 | 97.4 | 101 | 128 | 95.1 | 101 | 101
11 | COc1ccc(-c2ccc3c(N4CCOCC4)nc(N4C[C@@H](C)O[C@@H](C)C4)nc3n2)cc1CO + O=S(=O)(c1ccccc1)N(CC(F)(F)F)c1ccc(C(O)(C(F)(F)F)C(F)(F)F)cc1 [T0901317] (first compound 0.02 µM, partner dose 1.4 µM) | 93.6 | 132 | 77.5 | 83.1 | 88.6 | 108 | 116 | 79.8 | 84.5 | 85.5
